The source of these data is CN116173202A (BEIJING DONGFANG BIOTECH CO LTD, dated 2023).

The target in experiment [1] is T1, 人单核细胞白血病细胞(THP-1)表面LILRB4 (human, UniProt Q8NHJ6 22-448). The experiment can be described thus: cell-based or functional assay.
Experiment [2] deals with T1, 人单核细胞白血病细胞(THP-1)表面LILRB4. The experiment can be described thus: cell-based or functional assay. This is another data set of the same source.

B1: 人源化抗体HB-Ⅲ (human IgG1 / human Ck) (antibody)
heavy: QVQLVQSGAEVKKPGASVKVSCKASGYTFTNYWMHWVRQAPGQGLEWIGEINPSNGRTNYNEKFKTRATLTVDTSTSTAYMELSSLRSEDTAVYYCARWGQLGLREGYYAVDYWGQGTLVTVSSASTKGPSVFPLAPSSKSTSGGTAALGCLVKDYFPEPVTVSWNSGALTSGVHTFPAVLQSSGLYSLSSVVTVPSSSLGTQTYICNVNHKPSNTKVDKRV[letters of human IgG1 Fc with changes omitted]
light: DIVMTQSPSSLSASVGDRVTITCRASQDISNYLNWYQQKPGGAVKLLIYYTSRLHSGVPSRFSGSGSGTDYTFTISSLQPEDIATYFCQQGNTLPPTFGGGTKVEIKRTVAAPSVFIFPPSDEQLKSGTASVVCLLNNFYPREAKVQWKVDNALQSGNSQESVTEQDSKDSTYSLSSTLTLSKADYEKHKVYACEVTHQGLSSPVTKSFNRGEC
As for B1, in experiment [1], the “IC50, 抑制THP-1分泌ARG1 (arginase activity in supernatant, ApoE 0.5μg/mL)” value is 30.6 µg/mL. Besides, in experiment [2], the “IC50, 生物学活性检测(报告基因), THP-1-NF-κB-Luc cells with ApoE” value was 0.83 µg/mL.
